From US20260297081A1, “COMPOUNDS AND METHODS OF TREATING CANCERS” (Cullgen Inc., priority 2023, published 2026)
The name of at least one read-out is uncertain.

System: CyclinD1 (CCND1)
Test: Cyclin D1 (CCND1) percentage degradation in Calu-1 cells (Table 6)
Assay type: cell-based
Details: 16 hours

SMILES	CyclinD1 Degradation (40 nM)	CyclinD1 Degradation (200 nM)
CC(=O)c1c(C)c2cnc(Nc3ccc(N4CCN(CC(=O)NC5CC6(C5)CC(Nc5nc(C)ccc5C(=O)Nc5cn(C)c(C7CC7)n5)C6)CC4)cn3)nc2n(C2CCCC2)c1=O (stereo not drawn) [CPD-207, 2-((6-(2-(4-(6-((6-acetyl-8-cyclopentyl-5-methyl-7-oxo-7,8-dihydropyrido[2,3-d]pyrimidin-2-yl)amino)pyridin-3-yl)piperazin-1-yl)acetamido)spiro[3.3]heptan-2-yl)amino)-N-(2-cyclopropyl-1-methyl-1H-imidazol-4-yl)-6-methylnicotinamide]	B (50%< degradation activity <80%)	A (degradation activity >80%)
CC(=O)c1c(C)c2cnc(Nc3ccc(N4CCN(CC(=O)NCC5CC(Nc6nc(C)ccc6C(=O)Nc6cc(C)n(C)n6)C5)CC4)cn3)nc2n(C2CCCC2)c1=O (stereo not drawn) [CPD-209, 2-((3-((2-(4-(6-((6-acetyl-8-cyclopentyl-5-methyl-7-oxo-7,8-dihydropyrido[2,3-d]pyrimidin-2-yl)amino)pyridin-3-yl)piperazin-1-yl)acetamido)methyl)cyclobutyl)amino)-N-(1,5-dimethyl-1H-pyrazol-3-yl)-6-methylnicotinamide]	A (degradation activity >80%)	A (degradation activity >80%)
CCc1ccc(C(=O)Nc2cc(C)n(C)n2)c(NC2CC(CNC(=O)CN3CCN(c4ccc(Nc5ncc6c(C)c(C(C)=O)c(=O)n(C7CCCC7)c6n5)nc4)CC3)C2)n1 (stereo not drawn) [CPD-210, 2-((3-((2-(4-(6-((6-acetyl-8-cyclopentyl-5-methyl-7-oxo-7,8-dihydropyrido[2,3-d]pyrimidin-2-yl)amino)pyridin-3-yl)piperazin-1-yl)acetamido)methyl)cyclobutyl)amino)-N-(1,5-dimethyl-1H-pyrazol-3-yl)-6-ethylnicotinamide]	A (degradation activity >80%)	A (degradation activity >80%)
CNc1ccc(C(=O)Nc2ccc(N(C)C)nn2)c(NC2CN(C(=O)CCCN3CCN(c4ccc(Nc5ncc6c(C)c(C(C)=O)c(=O)n(C7CCCC7)c6n5)nc4)CC3)C2)n1 [CPD-211, 2-((1-(4-(4-(6-((6-acetyl-8-cyclopentyl-5-methyl-7-oxo-7,8-dihydropyrido[2,3-d]pyrimidin-2-yl)amino)pyridin-3-yl)piperazin-1-yl)butanoyl)azetidin-3-yl)amino)-N-(6-(dimethylamino)pyridazin-3-yl)-6-(methylamino)nicotinamide]	A (degradation activity >80%)	A (degradation activity >80%)
CC(=O)c1c(C)c2cnc(Nc3ccc(N4CCN(CC(=O)NCC5CC(Nc6nc(C(C)C)ccc6C(=O)Nc6cc(C)n(C)n6)C5)CC4)cn3)nc2n(C2CCCC2)c1=O (stereo not drawn) [CPD-212, 2-((3-((2-(4-(6-((6-acetyl-8-cyclopentyl-5-methyl-7-oxo-7,8-dihydropyrido[2,3-d]pyrimidin-2-yl)amino)pyridin-3-yl)piperazin-1-yl)acetamido)methyl)cyclobutyl)amino)-N-(1,5-dimethyl-1H-pyrazol-3-yl)-6-isopropylnicotinamide]	A (degradation activity >80%)	A (degradation activity >80%)
CC(=O)c1c(C)c2cnc(Nc3ccc(N4CCN(CC(=O)NCC5CC(Nc6nc(C7CC7)ccc6C(=O)Nc6cc(C)n(C)n6)C5)CC4)cn3)nc2n(C2CCCC2)c1=O (stereo not drawn) [CPD-213, 2-((3-((2-(4-(6-((6-acetyl-8-cyclopentyl-5-methyl-7-oxo-7,8-dihydropyrido[2,3-d]pyrimidin-2-yl)amino)pyridin-3-yl)piperazin-1-yl)acetamido)methyl)cyclobutyl)amino)-6-cyclopropyl-N-(1,5-dimethyl-1H-pyrazol-3-yl)nicotinamide]	B (50%< degradation activity <80%)	A (degradation activity >80%)
CNc1ccc(C(=O)Nc2cc(C3CC3)on2)c(NC2CC3(CC(NC(=O)CN4CCN(c5ccc(Nc6ncc7c(C)c(C(C)=O)c(=O)n(C8CCCC8)c7n6)nc5)CC4)C3)C2)n1 (stereo not drawn) [CPD-215, 2-((6-(2-(4-(6-((6-acetyl-8-cyclopentyl-5-methyl-7-oxo-7,8-dihydropyrido[2,3-d]pyrimidin-2-yl)amino)pyridin-3-yl)piperazin-1-yl)acetamido)spiro[3.3]heptan-2-yl)amino)-N-(5-cyclopropylisoxazol-3-yl)-6-(methylamino)nicotinamide]	D (degradation activity <30%)	D (degradation activity <30%)
CNc1ccc(C(=O)Nc2ccc(N(C)C)nn2)c(NC2CC3(C2)CC(OC(C)(C)C(=O)N2CCN(c4ccc(Nc5ncc6c(C)c(C(C)=O)c(=O)n(C7CCCC7)c6n5)nc4)CC2)C3)n1 (stereo not drawn) [CPD-216, 2-((6-((1-(4-(6-((6-acetyl-8-cyclopentyl-5-methyl-7-oxo-7,8-dihydropyrido[2,3-d]pyrimidin-2-yl)amino)pyridin-3-yl)piperazin-1-yl)-2-methyl-1-oxopropan-2-yl)oxy)spiro[3.3]heptan-2-yl)amino)-N-(6-(dimethylamino)pyridazin-3-yl)-6-(methylamino)nicotinamide]	A (degradation activity >80%)	A (degradation activity >80%)
CNc1ccc(C(=O)Nc2cn(C)c(C3CC3)n2)c(NC2CC(NC(=O)CN3CCN(c4ccc(Nc5ncc6c(C)c(C(C)=O)c(=O)n(C7CCCC7)c6n5)nc4)CC3)C2)n1 (stereo not drawn) [CPD-217, 2-((3-(2-(4-(6-((6-acetyl-8-cyclopentyl-5-methyl-7-oxo-7,8-dihydropyrido[2,3-d]pyrimidin-2-yl)amino)pyridin-3-yl)piperazin-1-yl)acetamido)cyclobutyl)amino)-N-(2-cyclopropyl-1-methyl-1H-imidazol-4-yl)-6-(methylamino)nicotinamide]	B (50%< degradation activity <80%)	A (degradation activity >80%)
CNc1ccc(C(=O)Nc2ccc(N(C)C)nn2)c(NC2CCN(C(=O)CCN3CCN(c4ccc(Nc5ncc6c(C)c(C(C)=O)c(=O)n(C7CCCC7)c6n5)nc4)CC3)C2)n1 (stereo not drawn) [CPD-218, 2-((1-(3-(4-(6-((6-acetyl-8-cyclopentyl-5-methyl-7-oxo-7,8-dihydropyrido[2,3-d]pyrimidin-2-yl)amino)pyridin-3-yl)piperazin-1-yl)propanoyl)pyrrolidin-3-yl)amino)-N-(6-(dimethylamino)pyridazin-3-yl)-6-(methylamino)nicotinamide]	A (degradation activity >80%)	A (degradation activity >80%)
CNc1ccc(C(=O)Nc2ccc(N(C)C)nn2)c(NC2CCC(NC(=O)CN3CCN(c4ccc(Nc5ncc6c(C)c(C(C)=O)c(=O)n(C7CCCC7)c6n5)nc4)CC3)C2)n1 (stereo not drawn) [CPD-219, 2-((3-(2-(4-(6-((6-acetyl-8-cyclopentyl-5-methyl-7-oxo-7,8-dihydropyrido[2,3-d]pyrimidin-2-yl)amino)pyridin-3-yl)piperazin-1-yl)acetamido)cyclopentyl)amino)-N-(6-(dimethylamino)pyridazin-3-yl)-6-(methylamino)nicotinamide]	A (degradation activity >80%)	A (degradation activity >80%)
CNc1ccc(C(=O)Nc2ccc(OC)c(C)n2)c(NC2CC3(CC(NC(=O)CN4CCN(c5ccc(Nc6ncc7c(C)c(C(C)=O)c(=O)n(C8CCCC8)c7n6)nc5)CC4)C3)C2)n1 (stereo not drawn) [CPD-220, 2-((6-(2-(4-(6-((6-acetyl-8-cyclopentyl-5-methyl-7-oxo-7,8-dihydropyrido[2,3-d]pyrimidin-2-yl)amino)pyridin-3-yl)piperazin-1-yl)acetamido)spiro[3.3]heptan-2-yl)amino)-N-(5-methoxy-6-methylpyridin-2-yl)-6-(methylamino)nicotinamide]	D (degradation activity <30%)	B (50%< degradation activity <80%)
CNc1ccc(C(=O)Nc2ccc(F)c(C)n2)c(NC2CC3(CC(NC(=O)CN4CCN(c5ccc(Nc6ncc7c(C)c(C(C)=O)c(=O)n(C8CCCC8)c7n6)nc5)CC4)C3)C2)n1 (stereo not drawn) [CPD-221, 2-((6-(2-(4-(6-((6-acetyl-8-cyclopentyl-5-methyl-7-oxo-7,8-dihydropyrido[2,3-d]pyrimidin-2-yl)amino)pyridin-3-yl)piperazin-1-yl)acetamido)spiro[3.3]heptan-2-yl)amino)-N-(5-fluoro-6-methylpyridin-2-yl)-6-(methylamino)nicotinamide]	A (degradation activity >80%)	A (degradation activity >80%)
CC(=O)c1c(C)c2cnc(Nc3ccc(N4CCN(CC(=O)NC5CC6(C5)CC(Nc5nc(NC(C)C)ccc5C(=O)Nc5cn(C)c(C7CC7)n5)C6)CC4)cn3)nc2n(C2CCCC2)c1=O (stereo not drawn) [CPD-222, 2-((6-(2-(4-(6-((6-acetyl-8-cyclopentyl-5-methyl-7-oxo-7,8-dihydropyrido[2,3-d]pyrimidin-2-yl)amino)pyridin-3-yl)piperazin-1-yl)acetamido)spiro[3.3]heptan-2-yl)amino)-N-(2-cyclopropyl-1-methyl-1H-imidazol-4-yl)-6-(isopropylamino)nicotinamide]	A (degradation activity >80%)	A (degradation activity >80%)
CNc1ccc(C(=O)Nc2ccc(N(C)C)nn2)c(N[C@H]2CC[C@H](NC(=O)CCN3CCN(c4ccc(Nc5ncc6c(C)c(C(C)=O)c(=O)n(C7CCCC7)c6n5)nc4)CC3)CC2)n1 [CPD-223, 2-((trans-4-(3-(4-(6-((6-acetyl-8-cyclopentyl-5-methyl-7-oxo-7,8-dihydropyrido[2,3-d]pyrimidin-2-yl)amino)pyridin-3-yl)piperazin-1-yl)propanamido)cyclohexyl)amino)-N-(6-(dimethylamino)pyridazin-3-yl)-6-(methylamino)nicotinamide]	A (degradation activity >80%)	A (degradation activity >80%)
